Source: US20030134390A1 (ZymoGenetics, published 2003)

Target: IL-21 receptor and IL-2Rγ expressed on the surface of transfected cells (human)
Assay: competition with 250 pM 125I-IL-21 for binding to BHK cells transfected with IL-21 receptor and IL-2Rγ, 2 h at 4 C

B1: zalpha11 Ligand I156ST/Q153D (ligand)
chain: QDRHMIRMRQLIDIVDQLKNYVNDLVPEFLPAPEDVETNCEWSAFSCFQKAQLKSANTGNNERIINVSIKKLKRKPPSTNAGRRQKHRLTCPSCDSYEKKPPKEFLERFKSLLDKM
notes: Tested as insect cell culture medium; also called Q145D/I148Stop
IC50: 0.01 µM
